We go through 42 sequences from paper PMC7819943, “Rice protein-binding microarrays: a tool to detect cis-acting elements near promoter regions in rice”.

Some of the results follow.

The target of this assay is T1, OsWOX13 (Oryza sativa, UniProt Q5QMM3 1-267).
T1 sequence: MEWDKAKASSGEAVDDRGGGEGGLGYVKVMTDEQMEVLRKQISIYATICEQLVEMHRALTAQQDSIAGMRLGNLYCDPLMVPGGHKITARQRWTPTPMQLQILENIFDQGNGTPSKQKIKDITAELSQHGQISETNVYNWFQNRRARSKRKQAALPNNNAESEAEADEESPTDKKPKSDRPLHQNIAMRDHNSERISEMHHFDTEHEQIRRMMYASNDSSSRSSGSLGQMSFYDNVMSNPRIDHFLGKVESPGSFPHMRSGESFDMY
The assay can be described thus: protein-binding microarray (RPBM); PBS, 2% BSA, 51.3 ng/ul salmon testes DNA, 50 uM zinc acetate, 200 nM TF, 25 C, 1 h; high values mean tight binding. As to conditions: protein: recombinant; tags: N-terminal polyhistidine and DsRed monomer fusion (pET32a); label: CyDye5-dUTP incorporated in the synthesized complementary strand; 3' TTTTT single-stranded linker to array surface; dsDNA, one strand shown. The method, boiled down: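 Binding signal here means per-feature fluorescence intensity in arbitrary units. The values were read on an Axon 4000B scanner after a custom Agilent array, double-stranded by primer extension with Cy5-dUTP, was incubated with 200 nM protein at 25 °C for 1 h in PBS with 2% BSA, salmon testes DNA and 50 µM zinc acetate, then washed. The proteins were transcription factors with an N-terminal polyhistidine tag and DsRed, expressed in E. coli BL21-CodonPlus and purified on Ni–NTA.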
As for “AAAGAAGAGCAAGGATTGATTAGGGACGATTGAATCGGGACGGAGTCACCTAGTGCAG”, the binding signal was 10500 fluorescence intensity (a.u.).

As for “CTATTGATTTCTGCTGCTACTTTTCTATACTGTATTTTGTCGGAGTCACCTAGTGCAG”, the binding signal is 15500 fluorescence intensity (a.u.). In the case of “TTTACGTTTCTGATTACCTAGGTATCTTGTTCTGTCTGTTCGGAGTCACCTAGTGCAG” it was 5410 fluorescence intensity (a.u.); in that of “CTGTGAATTGTGAATTTGTGATTGGGCTCGAACGCGGGCCCGGAGTCACCTAGTGCAG”, 21700 fluorescence intensity (a.u.); in that of “CCTTTCCTAGCCAATCAGCCACCTTCTCCCAAACCAGTACCGGAGTCACCTAGTGCAG”, 4060 fluorescence intensity (a.u.). For the sequence “GATAATTGTCGATTAACATTAGCACCAAGCTTATTGGTGTCGGAGTCACCTAGTGCAG”, the binding signal was 40000 fluorescence intensity (a.u.).

For “ACATAATATATTGATTGCCTTAAAAGATTACAGACTCTTTCGGAGTCACCTAGTGCAG”, the binding signal was 37200 fluorescence intensity (a.u.). For the sequence “AATCACTTTCTACTGCTTATTGGTTTCTGCACGTTTCTTTCGGAGTCACCTAGTGCAG”, the binding signal was 3170 fluorescence intensity (a.u.).

As for “CTCCATCACTGGATTGACCTCATATTTGGTTACAAGCAGCCGGAGTCACCTAGTGCAG”, the binding signal is 3260 fluorescence intensity (a.u.). As for “ACTCCTATTATAGCTTAGATTAGATGCGCCACTTTCGGCACGGAGTCACCTAGTGCAG”, the binding signal was 7220 fluorescence intensity (a.u.). As for “AGTCCTAGTAATTAAATGTATACATGTTAGGCACGATGTTCGGAGTCACCTAGTGCAG”, the binding signal is 6250 fluorescence intensity (a.u.). Regarding “TTTTATGATTTTCCAAAGAATTAATCTTTGAATGTGCCTTCGGAGTCACCTAGTGCAG”, the binding signal is 5250 fluorescence intensity (a.u.). Take “GATGAACATTGATTTGCTCGGATCTTGGATGCTGTTTGTGCGGAGTCACCTAGTGCAG”: the binding signal is 20800 fluorescence intensity (a.u.). As for “TCAAGTTTGACTAAGTTTATTGATAAATATAGTAATATTTCGGAGTCACCTAGTGCAG”, the binding signal is 3480 fluorescence intensity (a.u.). As for “GCAGAATAAACTTCGATTAACACTAAACAGTGCAGTGCATCGGAGTCACCTAGTGCAG”, the binding signal is 4350 fluorescence intensity (a.u.).

In the case of “GAGTAGAGGTGGGAGGAAGCGGTGGTGTGGTGGGGTGGGGCGGAGTCACCTAGTGCAG”, the binding signal was 4140 fluorescence intensity (a.u.). On to “CGCTAAAGAAGACGCTAATTGCGATCGAGTTAACCCGGTGCGGAGTCACCTAGTGCAG”, for which the binding signal is 4160 fluorescence intensity (a.u.).

As to “GATGATTAAAGTTGGGCATGAAAGATCATGCCTTTATCCTCGGAGTCACCTAGTGCAG”, the binding signal was 14600 fluorescence intensity (a.u.). In the case of “GAGGCCTACCGGCCAATTAATTTAATCACATCTGTTAGTTCGGAGTCACCTAGTGCAG”, the binding signal is 3680 fluorescence intensity (a.u.). Next, “TGAGATTGGATTTTCTGTCGACAGAGACTTAGCAATTCCGCGGAGTCACCTAGTGCAG”: 16300 fluorescence intensity (a.u.); “GGCCTAATTCATTGACGGGAACTAAGTGGGCTGAATTCGTCGGAGTCACCTAGTGCAG”: 7250 fluorescence intensity (a.u.); “CGTCTACCGTGATTGTTTCGATACAATTGTGTGCAAGTTACGGAGTCACCTAGTGCAG”: 21200 fluorescence intensity (a.u.). Next, “AATCCATTTGATGATTTGAGTAGTTGTCATAGCACAGGGCCGGAGTCACCTAGTGCAG”: 6550 fluorescence intensity (a.u.).

On to “TTTGATTAATCATACAATTCGTTGCGTTTTCTGCGCCGGACGGAGTCACCTAGTGCAG”, for which the binding signal is 52200 fluorescence intensity (a.u.). Take “CCAACCAATTAATCCGCCATGGATGGATCATGGATGAACACGGAGTCACCTAGTGCAG”: the binding signal is 6480 fluorescence intensity (a.u.). As to “TATGCTTAATTATCAAAACACATTACCGTCACATAAGTTGCGGAGTCACCTAGTGCAG”, the binding signal is 15500 fluorescence intensity (a.u.).

Regarding “CCAGATTTTGTGATGTGATCTGGAACTCGCCTGTTCGGTTCGGAGTCACCTAGTGCAG”, the binding signal was 3500 fluorescence intensity (a.u.). In the case of “TTGCTAATTGGGTTGCCAAGTGTGCCACGTGGGAGCAAACCGGAGTCACCTAGTGCAG” it was 11100 fluorescence intensity (a.u.). As to “ATAATTGTACCTAAACGCAAAATAGACCTATTTGAACCGCCGGAGTCACCTAGTGCAG”, the binding signal is 8070 fluorescence intensity (a.u.). Take “ATTGGTTATAGATTAATTAGAGTTAGTAGTTGGCTATACTCGGAGTCACCTAGTGCAG”: the binding signal was 11700 fluorescence intensity (a.u.). Take “ACCATTATTGATTAAAACTAAGTACATAGATCGAATCGAGCGGAGTCACCTAGTGCAG”: the binding signal was 37800 fluorescence intensity (a.u.).

On to “ATATAATTATAATTTATTTTATTGTGACTTGATTTATCATCGGAGTCACCTAGTGCAG”, for which the binding signal is 36400 fluorescence intensity (a.u.). With “AAAGCAAATAGACAAGTTCATTAGTTTGATGCAGGATACACGGAGTCACCTAGTGCAG”, the binding signal was 4450 fluorescence intensity (a.u.). With “AAATTTGACGACAAATTAAGGGAGCTAAAGTGAACTTACTCGGAGTCACCTAGTGCAG”, the binding signal was 3420 fluorescence intensity (a.u.). As for “ATGAATTGACTATTAAGTTGATTATATGTTATTTACAGCTCGGAGTCACCTAGTGCAG”, the binding signal is 43400 fluorescence intensity (a.u.). For the sequence “ACTGAACAAATTGAGCATGGTGTATATGTCACATTTTCTACGGAGTCACCTAGTGCAG”, the binding signal is 6220 fluorescence intensity (a.u.). Turning to “CCATAATCTTGGACTAATTTGCGAGACGAATCTAATGAGCCGGAGTCACCTAGTGCAG”, the binding signal is 18900 fluorescence intensity (a.u.). As to “CAAAATTGAATCCACCTCATTTCTACCAACCTTAAATACACGGAGTCACCTAGTGCAG”, the binding signal was 16800 fluorescence intensity (a.u.). Next, “TTAATTAGCAGTAGCACAAAGCAGCAATATAATGGCGACGCGGAGTCACCTAGTGCAG”: 3890 fluorescence intensity (a.u.); “TCTAATTATTGCTCGGATGGCGCTATTACTTTTGTACCTACGGAGTCACCTAGTGCAG”: 6080 fluorescence intensity (a.u.).

For the sequence “CCATCACTTGACAATTATGATTCAGACCTTGCTTGGCCTCCGGAGTCACCTAGTGCAG”, the binding signal was 4080 fluorescence intensity (a.u.).

With “TCTAATTAGTAGTATTATTATACATGTGGTCAGCAATTTTCGGAGTCACCTAGTGCAG”, the binding signal is 31200 fluorescence intensity (a.u.).
